Laboratory results published in PubChem BioAssay AID504339 (National Center for Advancing Translational Sciences (NCATS), 2011).
“And” between values parts separate entries of the source, which are not always exact repeats. Equal values may be shown once. Among all 390,000 compounds or so, about 17,000 (4.4%) were called active. Inconclusive means that the source gave no clear call. Such entries were picked first, then a sample of the others. Calls come from the whole dose curve; as a rule, active = well fitted inhibition curve with a large enough effect; inconclusive = small, poorly fitted or top-dose-only effect; inactive = no such curve, though single readings can be large or run the other way. A potency beside an inconclusive call is a rough fit, not a confirmed value.

Target: Lysine-specific demethylase 4A (Homo sapiens) (UniProt O75164)
Chain of UniProt O75164 (O75164 whole entry, looked up, the tested form may be a part): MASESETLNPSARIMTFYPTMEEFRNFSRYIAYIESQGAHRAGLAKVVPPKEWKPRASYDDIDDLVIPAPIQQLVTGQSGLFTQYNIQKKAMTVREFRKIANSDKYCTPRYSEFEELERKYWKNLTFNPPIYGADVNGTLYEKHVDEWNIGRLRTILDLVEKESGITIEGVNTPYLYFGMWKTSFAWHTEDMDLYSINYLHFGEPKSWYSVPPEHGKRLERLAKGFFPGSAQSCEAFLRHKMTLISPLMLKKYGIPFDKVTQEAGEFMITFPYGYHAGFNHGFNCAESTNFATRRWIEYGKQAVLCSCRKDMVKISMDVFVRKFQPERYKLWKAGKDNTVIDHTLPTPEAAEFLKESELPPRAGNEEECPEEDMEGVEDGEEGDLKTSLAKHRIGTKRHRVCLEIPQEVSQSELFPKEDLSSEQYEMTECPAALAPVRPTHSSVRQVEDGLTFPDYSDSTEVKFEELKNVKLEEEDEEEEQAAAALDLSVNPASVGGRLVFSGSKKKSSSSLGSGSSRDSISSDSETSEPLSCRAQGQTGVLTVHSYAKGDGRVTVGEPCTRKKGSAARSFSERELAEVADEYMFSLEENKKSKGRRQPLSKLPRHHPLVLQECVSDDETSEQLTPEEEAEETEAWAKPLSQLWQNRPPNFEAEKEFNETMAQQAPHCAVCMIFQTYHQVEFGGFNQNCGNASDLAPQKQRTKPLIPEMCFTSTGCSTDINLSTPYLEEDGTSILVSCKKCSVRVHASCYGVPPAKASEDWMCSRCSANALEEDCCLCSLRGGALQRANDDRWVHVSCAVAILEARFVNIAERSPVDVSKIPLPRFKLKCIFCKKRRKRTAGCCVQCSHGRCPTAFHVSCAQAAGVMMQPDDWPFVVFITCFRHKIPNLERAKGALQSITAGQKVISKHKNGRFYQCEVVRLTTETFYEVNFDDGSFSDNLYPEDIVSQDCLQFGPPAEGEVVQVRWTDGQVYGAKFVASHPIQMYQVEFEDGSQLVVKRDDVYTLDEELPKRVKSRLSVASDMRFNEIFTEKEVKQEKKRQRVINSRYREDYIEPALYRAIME
Test: qHTS Assay for Inhibitors of JMJD2A-Tudor Domain; note: nearly all actives have a fitted effect of over 50% in size
Conditions: AlphaScreen JMJD2A-Tudor / H3K4me3 peptide binding; activity change, negative = inhibition: at 114 µM (top of the series)
% is set by controls: 0 for no effect and ±100 for the full control effect; potency is the fitted concentration of half-maximal effect; tags give direction and shape of the fitted curve.

SMILES	Potency	activity change, negative = inhibition
COc1ccc(Nc2nc3ccc(OC)cc3s2)cc1	inconclusive: 56.2 µM [inhibitor, partial curve]	–
COc1ccc(C2CC(=O)N3CN(C4CCCCC4)CSC3=C2C#N)c(OC)c1 (centres undefined)	active: 3.55 µM	–
CCOC(=O)c1c(C)[nH]c(C)c1S(=O)(=O)NCc1ccccc1C	–	inactive: -27.6%
COc1cc(Cl)c(C)cc1Nc1nc2ccccc2c2nnc(C)n12	–	inactive: -3.79%
O=C(NN=C1CCCC1)c1cc(O)cc(O)c1	inconclusive: 63.1 µM [inhibitor, partial curve]	–
COc1ccc2oc(=O)cc(CN3CCN(Cc4ccc(OC)c(OC)c4OC)CC3)c2c1	–	inactive: -31.4%
CC1CN(C(=O)c2ccc(OC3CCN(Cc4ccccn4)CC3)cc2)CCN1C (centres undefined)	inconclusive: 10 µM [inhibitor, full curve, poor fit]	–
CCC(Oc1ccccc1-c1nnc(-c2ccccc2)o1)C(=O)Nc1ccc(C(C)=O)cc1 (centres undefined)	–	inactive: -7.33%
Cc1ccc(NC(=O)c2ccc(C(C)(C)C)cc2)cc1[N+](=O)[O-]	inconclusive: 25.1 µM [inhibitor, partial curve]	–
CC1CCC2C(=O)N(c3ccc(C(=O)Oc4cccc5cccnc45)cc3)C(=O)C2C1 (centres undefined)	active: 56.2 µM	–
CCOc1ccc(C2CC(=O)Nc3nc(SCc4ccccc4C)[nH]c(=O)c32)cc1OC (centres undefined)	–	inactive: -26.5%
O=C(CSc1ccc(Cl)cc1)N1CCN(c2ccc(Cl)cc2[N+](=O)[O-])CC1	inconclusive: 17.8 µM [inhibitor, full curve]	–
CCCCCc1cc(=O)oc2c(C(CCN3CCCCC3)c3ccc(OC)cc3)c(OC)cc(OC)c12 (centres undefined)	inconclusive: 63.1 µM [inhibitor, partial curve, poor fit] and inconclusive: 50.1 µM [inhibitor, partial curve]	–
Cc1[nH]c(=O)c(Cc2ccccc2)c(O)c1C#N	–	inactive: -13.4%
O=C(Nc1ccc(N2CCCC2)c(Cl)c1)c1ccc2c(c1)OCCO2	inconclusive: 44.7 µM [inhibitor, partial curve]	–
C=CCNC(=O)c1ccc(Cn2c(=S)[nH]c3cc4c(cc3c2=O)OCO4)cc1	inconclusive: 100 µM [inhibitor, partial curve]	–
S=c1[nH]nc([C@@H]2C[C@H]2c2ccccc2)n1-c1ccccc1	active: 17.8 µM	–
COC(=O)[C@H](Cc1c[nH]c2ccccc12)NC(=O)CCCc1c[nH]c2ccccc12	inconclusive: 44.7 µM [inhibitor, partial curve]	–
Brc1ccc(/C=N/Nc2ccccc2)cc1	inconclusive: 39.8 µM [inhibitor, partial curve]	–
Cc1ccc(C(=O)ONc2ccc(N=NC(=O)c3ccccc3O)cc2)cc1	inconclusive: 2.82 µM [inhibitor, full curve, poor fit]	–
O=C(NCc1n[nH]c(=S)n1-c1ccccc1)c1ccco1	active: 15.8 µM	–
CCn1c(C)c(C(C)=O)c(N2CCN(C(c3ccccc3)c3ccccc3)CC2)nc1=S	inconclusive: 39.8 µM [inhibitor, partial curve]	–

SMILES	Potency	activity change, negative = inhibition
Cc1cc(Nc2ccccc2Br)n2nc(C)nc2n1	inconclusive: 63.1 µM [inhibitor, partial curve]	–
N#Cc1ccccc1S(=O)(=O)N1CCN(Cc2c(O)ccc3ccccc23)CC1	inconclusive: 11.2 µM [inhibitor, full curve, poor fit]	–
Cn1cc(/C=C2\SC(=S)N(NC(=O)c3ccccc3Cl)C2=O)c2ccccc21	inconclusive: 3.16 µM [inhibitor, full curve]	–
CCOC(=O)c1c(C)[nH]c(O)c1C=Nc1ccccc1	inconclusive: 8.91 µM [inhibitor, partial curve]	–
CC(C)Sc1nnc([C@H](Cc2c[nH]c3ccccc23)NC(=O)OC(C)(C)C)o1	inconclusive: 63.1 µM [inhibitor, partial curve]	–
CN(C)CCCN(C(=O)c1ccc(S(=O)(=O)N2CCc3ccccc32)cc1)c1nc2ccc(F)cc2s1	inconclusive: 14.1 µM [inhibitor, full curve]	–
Cc1ccc(S(=O)(=O)/N=S(\C)C(C)C)cc1 (centres undefined)	active: 50.1 µM	–
CCc1cccc(OCCN2CCCC2)c1	active: 31.6 µM	–
COc1ccc(Br)cc1/C=C/C(=O)c1ccc(NC(C)=O)cc1	inconclusive: 79.4 µM [inhibitor, partial curve]	–
COc1ccc(C(=O)NCc2ccc3c(c2)OCO3)cc1S(=O)(=O)N1CCCC1	–	inactive: -10.1%
O=C(NN1C(=O)C2C3C=CC(O3)C2C1=O)c1cccc(O)c1 (centres undefined)	–	inactive: -13.1%
NC(=S)N/N=C/c1cccc(O)c1O	active: 28.2 µM	–
CCSc1cc(C2C(C(=O)OC)=C(C)NC3=C2C(=O)CCC3)c(C)o1 (centres undefined)	inconclusive: 50.1 µM [inhibitor, partial curve]	–
COC(=O)C1=C(C)N(c2cccc(OC)c2)C(=O)/C1=C\c1ccco1	active: 44.7 µM	–
Cc1ccc(-c2nn(-c3cc(Cl)ccc3[N+](=O)[O-])c(=O)c3ccccc23)cc1	inconclusive: 39.8 µM [inhibitor, partial curve]	–
Cc1ccc(C)n1-c1nc(=S)[nH][nH]1	active: 3.16 µM	–
N#Cc1nc(-c2ccccc2F)oc1NCCc1ccccn1	–	inactive: -5.48%
Cc1cc(/C=N/NC(=O)c2c(Br)cnn2C)c(C)n1-c1cccc(Br)c1	inconclusive: 25.1 µM [inhibitor, full curve]	–
CC(C)n1cnc2c(Nc3cccc(Cl)c3)nc(N(CCO)CCCO)nc21	inconclusive: 79.4 µM [inhibitor, partial curve]	–
CCCCN1C(=O)C(=Nc2cccc3cnccc23)c2ccccc21	inconclusive: 79.4 µM [inhibitor, partial curve]	–
CCC1CCCCN1C(=O)CCS(=O)(=O)c1cc2c(cc1C)NC(=O)CO2 (centres undefined)	inconclusive: 22.4 µM [inhibitor, full curve]	–
Cc1[nH]n(-c2ccc(Br)cc2)c(=O)c1C=Nc1ccc(S(=O)(=O)Nc2nccs2)cc1	inconclusive: 14.1 µM [inhibitor, single point]	–
